# In all, about 310,000 compounds went through this assay and about 14,000 (4.5%) showed an effect of 50% or more. Effects have a minus sign here. The list shows a part of the results.
# Target: human ether-à-go-go-related gene (hERG) potassium channel (human, UniProt Q12809)
# Assay: primary screen, population patch clamp on CHO cells stably expressing hERG
# 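Also: peak tail current of the secondary pulse compared with the same well before compound.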
# Chain of human ether-à-go-go-related gene (hERG) potassium channel (Q12809 whole entry, looked up): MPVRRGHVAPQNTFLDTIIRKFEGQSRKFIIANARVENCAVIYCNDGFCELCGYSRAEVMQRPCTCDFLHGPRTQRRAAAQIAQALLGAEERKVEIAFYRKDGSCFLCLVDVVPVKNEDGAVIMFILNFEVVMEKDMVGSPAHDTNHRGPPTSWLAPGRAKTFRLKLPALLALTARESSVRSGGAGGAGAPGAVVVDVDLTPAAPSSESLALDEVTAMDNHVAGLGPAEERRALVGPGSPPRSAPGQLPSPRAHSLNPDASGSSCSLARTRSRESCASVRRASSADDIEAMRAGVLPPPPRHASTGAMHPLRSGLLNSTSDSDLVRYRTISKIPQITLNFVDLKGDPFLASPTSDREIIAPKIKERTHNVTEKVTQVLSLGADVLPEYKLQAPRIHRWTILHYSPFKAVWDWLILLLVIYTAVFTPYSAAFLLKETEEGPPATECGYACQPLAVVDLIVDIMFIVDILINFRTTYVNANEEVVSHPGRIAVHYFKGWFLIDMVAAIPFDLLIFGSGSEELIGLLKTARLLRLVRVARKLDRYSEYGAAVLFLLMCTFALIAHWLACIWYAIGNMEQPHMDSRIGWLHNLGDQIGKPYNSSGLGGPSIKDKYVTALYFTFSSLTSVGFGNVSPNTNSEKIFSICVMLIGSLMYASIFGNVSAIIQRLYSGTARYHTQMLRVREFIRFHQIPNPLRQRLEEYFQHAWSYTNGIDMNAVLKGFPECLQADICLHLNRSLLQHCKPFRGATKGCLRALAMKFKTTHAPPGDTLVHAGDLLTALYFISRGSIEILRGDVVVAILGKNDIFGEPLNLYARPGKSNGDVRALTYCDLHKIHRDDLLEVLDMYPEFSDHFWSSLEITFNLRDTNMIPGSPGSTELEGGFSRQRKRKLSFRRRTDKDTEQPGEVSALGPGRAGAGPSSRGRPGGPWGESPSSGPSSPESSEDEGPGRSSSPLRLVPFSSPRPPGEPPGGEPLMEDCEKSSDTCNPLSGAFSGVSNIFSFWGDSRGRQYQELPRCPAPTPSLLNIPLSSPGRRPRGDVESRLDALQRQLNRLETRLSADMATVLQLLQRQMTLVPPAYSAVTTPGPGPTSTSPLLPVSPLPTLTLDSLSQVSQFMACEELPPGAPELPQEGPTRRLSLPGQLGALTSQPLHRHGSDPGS
row,SMILES,"hERG current change (%, negative = inhibition) at 10uM [%]"
1,Cc1ccc(-c2cc(-c3ccccc3)c(C#N)c(Br)n2)cc1,-4.18
2,CCN(CC)CCN1C(=O)C(O)=C(C(=O)c2cc3cccc(OC)c3o2)C1c1ccc(F)cc1 (stereo not shown),3.13
3,CC(=O)c1ccccc1OCc1ccc(S(=O)(=O)Cc2ccccc2)cc1,-26.6
4,CCOCc1nnc(NS(C)(=O)=O)s1,5.71
5,COc1cccc(-c2nn(Cc3ccccc3)cc2C(=O)O)c1,13.1
6,COC(=O)N/N=C/c1cc([N+](=O)[O-])cc(Br)c1O,38.8
7,COc1ccc(N(CC(=O)Nc2ccccc2C(=O)N2CCCC2)S(=O)(=O)c2ccccc2)cc1,-51.8
8,COc1ccc(N2CCN(c3nccs3)CC2)cc1,4.77
9,CCC(C)[C@H](NC(=O)[C@@H]1CSC2c3ccccc3C(=O)N21)C(=O)NCc1ccncc1 (stereo partly shown),-6.39
10,O=C(NNC(=O)c1ccc(F)c(S(=O)(=O)N2CCOCC2)c1)c1ccc([N+](=O)[O-])cc1,-45
11,O=C(COC(=O)C1CCC1)Nc1ncc(Cl)cc1Cl,-9.55
12,O=C(Nc1cc(C(F)(F)F)ccc1-n1cncn1)c1ccc([N+](=O)[O-])o1,-23
13,Cc1ccccc1Nc1nc(N)c2ccccc2n1.Cl,-7.58
14,CC(CCc1ccc(O)cc1)N(C)CCc1ccccc1 (stereo not shown),-62.2
15,O=C(CN1C(=O)NC2(CCCC2)C1=O)N1CCN(S(=O)(=O)c2ccccc2)CC1,28.5
16,O=[N+]([O-])c1ccc(OCCn2cnc3ccccc32)cc1,-68.1
17,CC(C)CN(C(=O)CCCOc1ccc(Cl)cc1Cl)c1c(N)n(Cc2ccccc2)c(=O)[nH]c1=O,-12.5
18,CCCN(CC(=O)Nc1cc(C)on1)S(=O)(=O)c1cccc(C(F)(F)F)c1,14
19,COc1cccc(/C=N/Nc2nnc3c(n2)[nH]c2ccccc23)c1OC,11.8
20,Cc1ccc(C)c(NC(=O)CN(C)C(=O)c2cccc(N3C(=O)CCC3=O)c2)c1,-0.451
21,CCOC(=O)C1CCCN(C(=S)NC2CCCCC2)C1 (stereo not shown),6.12
22,COc1ccccc1C(=O)N1CCN(C(=O)COc2cccc(C)c2)CC1,-12.2

row,SMILES,"hERG current change (%, negative = inhibition) at 10uM [%]"
1,COc1ccc(CCNC(=O)Cn2cc(C(F)(F)F)cc(Cl)c2=O)cc1,6.98
2,Cc1cc(C)c(C#N)c(SCSCc2ccccc2)n1,-7.12
3,C/C(=N\Nc1ccc(S(=O)(=O)Nc2ccccc2)cc1[N+](=O)[O-])c1ccncc1,6.48
4,O=C(/C=C/c1ccccc1)c1ccc2c3c(cccc13)CC2,4.3
5,CCC(NC(=O)c1ccccc1NC(=O)c1ccco1)C(=O)NC1CCCCC1 (stereo not shown),-22.5
6,Cc1occc1C(=O)N/N=C/c1ccc2c(c1)OCO2,8.07
7,COC(=O)c1sccc1N/C=C(\C#N)S(=O)(=O)C(C)(C)C,2.62
8,Cc1ccccc1C(=O)NNC(=S)NC(=O)c1ccc(Cl)cc1Cl,6.56
9,Cc1cccc(N(CC(=O)NCCSCc2ccccc2)S(C)(=O)=O)c1,26.5
10,Cc1ccc(N2C(=O)NC(=O)/C(=C\c3cccn3C(C)(C)C)C2=O)cc1,24.5
11,CN(C(=O)COC(=O)c1ccc(=O)n(Cc2ccccc2)n1)C1CCCCC1,-9.68
12,CSc1ccccc1NC(=O)CN(C)C(=O)Cn1c(=O)oc2ccccc21,2.37
13,C=CCc1ccccc1OCC(O)CN1CCN(c2ccccc2OC)CC1.Cl (stereo not shown),-75.2
14,COc1ccc(C(CC(=O)c2ccccc2)CC(=O)c2ccccc2)cc1OC,-18.4
15,COc1ccc(-c2c(C(F)(F)F)nn(C)c2NC(=O)CSCC(=O)O)cc1,23.9
16,COc1cc(-c2nc(-c3ccc(NC(=O)c4ccc(Br)o4)cc3)no2)cc(OC)c1OC,2.56
17,Cc1ccc(C)c(N(C)C(=O)c2ccc3c(=O)n4c(nc3c2)CCCCC4)c1,-7.68
18,Cc1sc2ccccc2[n+]1CCC(C)S(=O)(=O)[O-] (stereo not shown),-4.04
19,COc1ccc(C)cc1NC(=O)NNC(=O)c1ccoc1C,21.3
20,COCCn1nnnc1C(c1cccs1)N1CCN2CCCC2C1.Cl (stereo not shown),7.3
21,O=C(c1ccc(Cl)c([N+](=O)[O-])c1)N1CCN(c2ccccc2)CC1,-16.4
22,Cc1cc(C)c2nc(N(CCN(C)C)C(=O)c3ccc4ccccc4c3)sc2c1.Cl,11.6

row,SMILES,"hERG current change (%, negative = inhibition) at 10uM [%]"
1,Cc1cc(N2CCN(C)CC2)nc2ccc(NC(=S)NCc3cccs3)cc12,-56.3
2,CSc1nc(C)cc(OCC(=O)N2CCOCC2)n1,6.14
3,Cc1ccc(C(=O)O)cc1N=Cc1cc(Br)cc(Br)c1O,16.8
4,COc1ccc(NS(=O)(=O)c2ccc(N3CCCCC3)c(N)c2)cc1,-0.652
5,CCc1cc(-c2n[nH]c(=S)n2CC(C)C)cs1,1.12
6,COC(=O)c1cccc([N+](=O)[O-])c1CS(=O)(=O)c1ccc(C)cc1,3.47
7,CCCNC(=O)c1ccccc1SCc1c(C)noc1C,21.9
8,c1ccc(-c2cccc(-c3ccccc3)n2)cc1,18.4
9,COc1ccc(OC)c(C(c2nnnn2CC2CCCO2)N2CCN(C)CC2)c1.Cl (stereo not shown),7.06
10,CS(=O)(=O)NN1C(=O)c2ccccc2NC1c1ccccc1F (stereo not shown),7.61
11,CCc1ccccc1NC(=O)CSc1nnc(Cn2nnc3ccccc32)n1C,5.27
12,Cc1nc(CSc2ccccc2)cc(=O)[nH]1,9.19
13,COc1cc(NC(=O)CN2C(=O)COc3ccc(S(=O)(=O)N4CCCC4)cc32)cc(OC)c1,-21.7
14,CCOc1ccc(CN2CCNC(=O)C2CC(=O)O)cc1 (stereo not shown),11.1
15,CCOC(=O)c1c(NC(=O)C(C)OC(=O)c2ccc(NC(=O)CC#N)cc2)sc2c1CCCC2 (stereo not shown),12.5
16,COC(=O)c1cccc(-n2nnnc2SCC(=O)Nc2nc3c(s2)CCCC3)c1,-0.926
17,O=C(CN(c1ccc(F)cc1)S(=O)(=O)c1ccccc1)Nc1ccccc1C(=O)O,14.5
18,O=C(c1ccco1)N1CCN(C(=S)Nc2ccc(F)c(Cl)c2)CC1,-71.9
19,COC(=O)N/N=C/c1ccc([N+](=O)[O-])s1,6.86
20,CCN(N=Nc1nonc1OC)c1nonc1OC,-2.77
21,COc1ccc(N2Cc3ccccc3C2=NC(=O)c2cncc(Br)c2)cc1,-2.95
22,O=C(CSc1ccc2ccccc2n1)c1ccccc1,12.8

row,SMILES,"hERG current change (%, negative = inhibition) at 10uM [%]"
1,CCc1ccc(NC(=O)C2CCCN(S(=O)(=O)c3ccc4c(c3)CC(C)N4C(C)=O)C2)cc1 (stereo not shown),-16.4
2,C=CCN(CC=C)CC(O)CN(c1cc([N+](=O)[O-])ccc1OC)S(=O)(=O)c1ccccc1 (stereo not shown),-10.7
3,CC(Oc1ccccc1)C(=O)N1CCN=C1SCc1ccc(F)cc1 (stereo not shown),-15.3
4,COc1ccc(C(=O)N2CCC(C(=O)Nc3ccccc3C)CC2)cc1OC,-3.88
5,COc1ccccc1C1SCCN1C(=O)c1ccc([N+](=O)[O-])cc1 (stereo not shown),-38.7
6,COc1ccc(C(=O)NNc2ccccc2)cc1OC,0.464
7,Cc1cc(C)cc(C(=O)NCC(=O)OCC(=O)c2c(N)n(C)c(=O)n(C)c2=O)c1,17.4
8,CSc1n[nH]c(/N=C/c2oc(O)c3ccccc23)n1,17.6
9,CC(=O)NCCN1C(=O)C2C3c4ccccc4C(c4ccccc43)C2C1=O (stereo not shown),10.4
10,O=C(Nc1ccccc1Cl)C1CCN(Cc2cnn(-c3ccccc3)c2-n2cccc2)CC1,-24.9
11,CCCCn1nc2cc(C(=O)NCCCCc3ccccc3)ccc2c1OCC,3.17
12,COc1ccccc1-c1noc(CCCC(=O)Nc2ccc(C(N)=O)cc2)n1,7.25
13,COc1ccc(OCC(=O)N2N=C(C)CC2(O)C(F)(F)F)cc1 (stereo not shown),19.6
14,Cn1c(CO)cnc1SCc1ccc([N+](=O)[O-])cc1,-4.26
15,O=C(CSc1nnc(Cc2ccsc2)o1)c1ccccc1,-16.7
16,COc1cc2c(cc1OC)CN(C(=O)/C=C/c1cc(OC)c(OC)c(OC)c1)CC2,3.11
17,Nc1nc2c(c3c1c(=O)oc1ccccc13)CCCCC2,7.95
18,CC(C)c1ccc(S(=O)(=O)N2CCN(C(=O)c3ccco3)CC2)cc1,-21.1
19,Cc1ccccc1NC(=O)Cn1cnc2c(oc3nc4c(cc32)COC(C)(C)C4)c1=O,1.57
20,Cl.O=C(CC(Nc1ccccc1)c1ccc(F)cc1)c1ccccc1 (stereo not shown),-9.51
21,COc1ccc(C(=O)Nc2nnc(S(=O)(=O)N(C)Cc3ccccc3)s2)cc1,7.21
22,CC(C)OCCCn1c(SCC(=O)N2CCc3ccccc32)nc2ccccc2c1=O,6.61

# Source: PMC4336329 (PLoS ONE, 2015)
